# Test results taken from the supplement of paper PMC11417369.
# ± gives the standard deviation of the averaged measurements. The list shows a part of the results.
# System: PfAP2-G AP2 domain (GST-tagged)
# Assay: gcPBM binding intensity (ln(normalized median fluorescence intensity)); higher = stronger DNA binding
# How it was run: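 An Agilent 4 × 180k array carrying primer-extended double-stranded 36-bp intergenic genomic probes and negative controls received GST-tagged P. falciparum DNA-binding domains expressed in E. coli, about 25 μg on average, for 1 h. The binding buffer contained 1× PBS, 1% milk, 0.2 mg/ml BSA, 0.5% salmon testes DNA and 0.03% Triton X-100. Binding intensity is the top Masliner-normalised natural-log median intensity across replicate spots of either probe orientation, read after Alexa488 anti-GST antibody staining and a 488 nm scan.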
row,Sequence,gcPBM binding intensity (ln)
1,TTTTACAAATATAATGGGTGAGCTATCAAAATAAAT [GTGCAC_negctrl_site91],9.915 ± 0.078
2,TTTTTCTATAAAAAAAAAAAAAAAAAATATATATAT [TGCATGCA_negctrl_site535],9.62 ± 0.49
3,TTGTATATTTTATGTACACACAATAAGTTAATATAA [CACACA_site4655],11.4 ± 0.93
4,AAAATAATGTATATATGTACATATAAATATATATAT [XGTACX_site8081],11.1 ± 0.75
5,ATAAAAGGAAGAAAATGTACATATAATTATATGCAT [XGTACX_site8421],10.9 ± 0.53
6,TATTATTGCATATTTACACACGTACTAATTTAAACA [CACACA_site970],11.2 ± 0.82
7,ATGTTTTTAAAAAATTGTACATAATATTTTTTATAA [XGTACX_site7692],11.3 ± 0.72
8,TATATATATATATATATAATACGAATTTGTAGTACA [TGCATGCA_negctrl_site224],11.5 ± 0.93
9,AAAAAAAAAAAGTTTACACACATTAATTTTACATAT [CACACA_site834],9.76 ± 0.042
10,AAAAAAATACCATTCACACATATTCTTTTATTATTT [CACACA_site5113],9.94 ± 0.19
11,ATTAAAAAGACAAAAAAAAAATTTTTTTTTTTTTTT [CACACA_negctrl_site1027],9.99 ± 0.085
12,AAATCAACGATCTATACATGCATATAATATATACAT [TGCATGCA_site25],9.68 ± 0.014
13,TAATAATACCCTTGCTGTACCAAATAAAGTTGAATA [XGTACX_site6922],10.8 ± 0.64
14,GTAGCAATAAACATATGTACATATATATATTTTTTC [XGTACX_site5814],11.1 ± 0.68
15,AGAAAAAGGAGAAAAAGTACAAAACGGAGTAGTATT [XGTACX_site3858],11.1 ± 0.59
16,AAAAATTATATACATCATAGAATTAACATTTTAAAT [GTGCAC_negctrl_site369],9.55 ± 0.11
17,TTTCATAACAAAAAAGTGCAAAATAGCACGAACATT [GTGCAC_site9703],10.3 ± 0.16
18,ATTTCTCAATCGTAATGTACAAAAAAAAGGGAAAAG [XGTACX_site2781],10.8 ± 0.62
19,ATATTTAAATAATATTCACACACAAAATTATATTTT [CACACA_site7955],9.955 ± 0.064

row,Sequence,gcPBM binding intensity (ln)
1,CATATAAAAATATATGCACACAAATAAAAAATTATA [CACACA_site9210],10.1 ± 0.11
2,ACAAACAAAGAAAGAACACACATACACAATATACCT [CACACA_site5566],10.055 ± 0.007
3,ATGACTTACATATATAGTACTTTGTTTTGGAGTTGC [XGTACX_site94],10.8 ± 0.45
4,ATAAATATAATAATCATACACACCAAAGAGAATATT [CACACA_site1888],9.93 ± 0.11
5,AAAGTTATTATGCAATAATTATGATAATTAATATAT [TGCATGCA_negctrl_site316],9.73 ± 0.11
6,TATGAGGAAACGTGGTGTACTTTTTTTTAATAAAAA [XGTACX_site1351],11.6 ± 0.93
7,ACATATATATATATATATATATATATATCATTATGT [CACACA_negctrl_site724],10.5 ± 0.43
8,ATATATTATATATATTGTACATGTAAAATTTTAAAA [XGTACX_site7197],11.1 ± 0.71
9,AAAAATTTGGCATACACACACACACCCACACCCACA [CACACA_site587],10.6 ± 0.44
10,TATGTATTTAAATTAACACACATATGTGGTTAATAG [CACACA_site5697],9.89 ± 0.014
11,ACTCTTGATCTGAATGCACACAATAAATTATATAAA [CACACA_site1438],10.3 ± 0.4
12,AGTATAATAATATTTACACACGCATATGTTATATAT [CACACA_site1476],10 ± 0.085
13,AAAACGCTACATAATTGTACATGTAGAAATAAAAGC [XGTACX_site2895],11 ± 0.64
14,TCTAAAAATAAGAACACACACATATAAGCATATAAA [CACACA_site2274],9.92 ± 0.085
15,TACTGCCTTCCATACCCACACACTTCCCATATATTT [CACACA_site2705],10.095 ± 0.007
16,ATTTAAAAAAAAAAAACACACATGTGAATAGAAAAG [CACACA_site3323],10.2 ± 0.23
17,TATGTATATATATATATATATATATATATATATATA [TGCATGCA_negctrl_site491],9.75 ± 0.67
18,ATGGCCACTGTGAAATGTACAAAAAAAAAATACAAT [XGTACX_site2874],11 ± 0.45
19,TTCCAAAATTGCACATGTACAAAATTCTCCAATATG [XGTACX_site3419],10.9 ± 0.62

row,Sequence,gcPBM binding intensity (ln)
1,TTTATATTATTTAATGAGAAATAATTATAAACAATT [TGCATGCA_negctrl_site65],9.94 ± 0.38
2,TTTTTTTTTTTTTTTTGTACATATTTTAATTTGTTT [XGTACX_site6297],10.9 ± 0.99
3,AAAAAAAAAAAATAATGTACATATGTATTTGAGAAA [XGTACX_site3572],11.1 ± 0.63
4,CATACAAATTAATATGTACACACAAATATATATATA [CACACA_site8605],11.5 ± 0.95
5,AGTAGTCTGGAGAAAAGTACATAGTATCTGGTAACC [XGTACX_site2024],11.2 ± 0.67
6,TTTTACAATAATAAGTAGATCTAAATAAAGATTTAA [GTGCAC_negctrl_site547],9.62 ± 0.18
7,TAATTGTACGCCAATACACACAGAATTAAAATGTAG [CACACA_site4234],11.6 ± 1.1
8,TTTTTAAAGTTTTATACACACACCAAAATTATTCTA [CACACA_site600],10.2 ± 0.26
9,TTGCCCATTTAATTAACACACAAATATTTATATTCT [CACACA_site738],10.4 ± 0.36
10,GTTAAATAATATATATGTACATACATAAGTGTTACT [XGTACX_site4778],11.1 ± 0.57
11,ATTTCCTTTTGTTTCAGTACATAATTTTTTTTTTTT [XGTACX_site4842],11.1 ± 0.63
12,GATATTCATAGAAACACACATACAAATTATGTATAT [CACACA_site144],9.94 ± 0.057
13,TATGTGCACCCATGTACATGCGGACATATGTTATAT [TGCATGCA_site383],11.5 ± 0.8
14,ATACATAAAATTAAAACACACATTTTATTAAATACG [CACACA_site2167],9.86 ± 0.13
15,AAAAAATATATTTGCACACTCAAAAAAAAAAAAAAA [CACACA_site859],9.89 ± 0.35
16,AGTTATATGGTTAATACACACAACAAATGTTTCTTC [CACACA_site6642],10.01 ± 0.085
17,GTGTGATGGTACAATATACACACTTAAAAAAAAAAA [CACACA_site8769],10.8 ± 0.84
18,TACCTAATATGTTATACACACATTATAAGTACATAT [CACACA_site7206],11.6 ± 0.95
